According to publication PMC6212790:
This is one part of the list. At the low end of the ranking, values are background and their order means little.

Biological target: T1, GST-Rok (full length) (UniProt O34857)
T1 sequence: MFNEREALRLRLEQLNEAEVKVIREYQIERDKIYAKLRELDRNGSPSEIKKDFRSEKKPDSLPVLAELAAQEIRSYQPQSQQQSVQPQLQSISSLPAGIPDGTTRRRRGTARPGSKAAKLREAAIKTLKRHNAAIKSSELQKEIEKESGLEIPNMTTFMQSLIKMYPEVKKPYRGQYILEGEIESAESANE
Assay: protein binding microarray;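 note: rank score from −0.5 (least bound) to 0.5 (best bound)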
Details: Rok is a gene silencer of Bacillus subtilis; high values mean tight binding; most listed sequences are background and not binding sites; double strand, one strand shown

Row | Sequence | binding signal [E-score]
1 | TCCGAACA | 0.0572
2 | AAAGTACT | 0.221
3 | ACTTGTCC | -0.0505
4 | CGGCACAA | -0.145
5 | GTTCTCTA | 0.24
6 | ATCTGCTC | -0.0644
7 | GCCGATCC | -0.224
8 | ACTGAGGA | -0.171
9 | ACTTGCTA | 0.157
10 | GCAAGGAA | -0.153
11 | CCTGTCGA | -0.105
12 | CCCCATCG | -0.157
13 | GGCTTACA | -0.132
14 | TAGCATCA | -0.0631
15 | ACTCCAAC | -0.233
16 | ACATGAGT | 0.0857
17 | TACAGGCA | -0.087
18 | AACTTCAT | 0.0811
19 | AAAAAGTT | 0.0934
20 | GACCATCA | -0.255
21 | CCTTTCAC | -0.101
22 | AGTATCCA | -0.00362
23 | CCAATTAG | -0.0847
24 | AGAATTAG | 0.254
25 | CAGTGGTC | -0.278

Row | Sequence | binding signal [E-score]
26 | ACGCGGAA | -0.000711
27 | AGGCATAG | -0.0501
28 | CGTCTAGC | -0.127
29 | GCGGTACC | -0.115
30 | ATGCGGGA | -0.179
31 | AACTCATC | -0.0758
32 | CTACGAGC | -0.192
33 | TAAACAAA | 0.0173
34 | ACTGATAG | 0.102
35 | AAGCGCCG | -0.211
36 | AATTTTTA | 0.107
37 | CCTTCGTA | -0.212
38 | GGATCATA | 0.0856
39 | GTCGTCTA | -0.0289
40 | AAGAAATC | 0.0862
41 | CATATGGA | -0.0847
42 | ATGGGCTC | -0.191
43 | TAACATGA | 0.22
44 | AGTTCCCC | -0.173
45 | CACTTGTC | -0.0559
46 | CCACATAA | 0.108
47 | GGAGCGCC | -0.341
48 | ATGATGTC | -0.19
49 | AAGCTGGT | -0.0627
50 | CTGGTGAA | -0.118

Row | Sequence | binding signal [E-score]
51 | AGTGCGTC | 0.0828
52 | CAGTTTGA | -0.0929
53 | TAGCACCA | -0.0603
54 | TACTCTGA | -0.0307
55 | GCGGGAGA | -0.329
56 | CCACCGAA | -0.0512
57 | ACTGGACG | 0.057
58 | CGCTGGCA | -0.119
59 | AGCTGGTA | 0.223
60 | CCTTACAA | 0.0477
61 | GATTTGGA | 0.0296
62 | CCTGGCAG | -0.232
63 | AGTTTTTA | 0.131
64 | ATCAGTTC | 0.12
65 | GTATCTAA | 0.285
66 | ATGTGAGG | -0.143
67 | AAGGGGGC | -0.327
68 | ACAGTATG | 0.101
69 | ACAATTAT | 0.294
70 | AGTCTCGG | -0.0699
71 | ACAACTAT | 0.33
72 | AGTTTCAG | 0.0509
73 | GCTGCCAA | -0.067
74 | CTAGAACC | 0.0686
75 | AGACGACA | -0.192

Row | Sequence | binding signal [E-score]
76 | CAGGAGGC | -0.387
77 | AGATTTCA | 0.0391
78 | ATGGCGTG | -0.208
79 | AAACGGTA | 0.226
80 | CTTCTCTA | 0.0574
81 | GTTAGCCA | -0.0296
82 | AAGGAGCG | -0.3
83 | AGTTTATG | 0.166
84 | CAGGCAGA | -0.327
85 | ACTTCCTA | 0.107
86 | AGTCTTGC | -0.0663
87 | AAGGCTCG | -0.304
88 | ACTGGCTC | -0.238
89 | CGAACTGA | -0.0407
90 | AGCTCACT | -0.0182
91 | ATGTATGC | 0.167
92 | CGCTGCGA | -0.0364
93 | GCAGATCC | 0.0551
94 | GTTTTATA | 0.141
95 | AACCTTGC | -0.0541
96 | CTATTTCA | 0.0893
97 | GACTGCCC | -0.296
98 | AATTTATA | 0.435
99 | AAGACCCG | -0.173
100 | CACGCAGG | -0.258

Row | Sequence | binding signal [E-score]
101 | ATATGCGA | 0.107
102 | AGGGAGAG | -0.325
103 | CATTTTTA | 0.153
104 | AACGACCG | -0.0771
105 | CTAGCTGC | 0.0309
106 | ACCTACAA | 0.265
107 | AATGGAGC | -0.103
108 | GCTCCACA | 0.0705
109 | AACACGTG | -0.0472
110 | AACGACCT | -0.109
111 | CGTCATGC | -0.129
112 | AGTGTTGA | 0.0228
113 | GCGGGACA | -0.302
114 | GCATAGTA | 0.187
115 | CTAGGCAG | 0.039
116 | AGATATAT | 0.395
117 | AGGTTGGG | -0.132
118 | AGTCTGTG | -0.0376
119 | AACTGGCT | -0.103
120 | AGAGTCTC | 0.0335
121 | CCTTTAAC | -0.0145
122 | AATGACAA | 0.16
123 | CACTTCCG | 0.0662
124 | CGGTCGAG | -0.153
125 | GTCCACCA | -0.277

Row | Sequence | binding signal [E-score]
126 | GGATTTAA | -0.0241
127 | GCGTTAGC | -0.153
128 | CAACGCCG | -0.253
129 | CGCCACAC | -0.0219
130 | GACGTGAC | -0.177
131 | TCCATTAA | 0.0273
132 | GTGGTTAA | -0.158
133 | CCTCTGTA | -0.0677
134 | AAGCGAGC | -0.156
135 | ACGCAAAA | 0.129
136 | ATTAGTCC | 0.0275
137 | GACCTCGC | -0.236
138 | TGAACCCA | -0.0568
139 | ATAACGAT | 0.229
140 | GGCTTGAC | -0.347
141 | ATGACATA | 0.0478
142 | AGAAACCC | 0.0446
143 | CGAGCGGA | -0.195
144 | CATTGCGC | -0.05
145 | GAAGCGTA | -0.00919
146 | TGGACGAA | -0.181
147 | GACCGTCC | -0.274
148 | CCGAGATC | 0.0548
149 | TACCAGGA | 0.119
150 | TCATTCAA | -0.111

Row | Sequence | binding signal [E-score]
151 | ATCTTCGG | 0.0362
152 | AGTTTATA | 0.301
153 | TGACGAAA | 0.0695
154 | ATCGACTC | -0.00764
155 | AGCGAACT | 0.0119
156 | ATCCAATC | 0.0269
157 | ACTTTGCA | -0.0228
158 | ACAGGCGG | -0.273
159 | AAAAGGTC | 0.0179
160 | CATCGTAG | -0.0797
161 | CGCATTCA | -0.0312
162 | CCGACTAG | -0.163
163 | AGCCCTCG | -0.407
164 | AGGTGCGC | -0.168
165 | GCAGCTAC | -0.0984
166 | CGATGTTC | 0.0493
167 | GAACAAGC | -0.0405
168 | CCGACGAG | -0.161
169 | AGTCCATG | 0.134
170 | AATATAGC | 0.32
171 | CATTACGG | -0.0492
172 | ACTTCACC | 0.0492
